# Reference: PubChem BioAssay AID1745849 (National Center for Advancing Translational Sciences (NCATS), 2022)
# Out of some 2,100 compounds screened, about 320 (15%) were called active. Inconclusive means that the source gave no clear call. Such entries were picked first, then a sample of the others. Calls follow the shape of the dose curve; as a rule, active = well fitted cell-killing curve with a large enough effect; inconclusive = small, poorly fitted or top-dose-only effect, or effect the other way; inactive = flat fitted curve, though single readings scatter. Potencies beside an inconclusive call are fits to weak or partial responses and may not hold up.
# Experiment: Viability Counterscreen for CMV-Luciferase Assay of Inhibitors of ATXN expression; also: nearly all actives have a fitted effect of over 55% in size
# Conditions: HEK-293 CMV-luciferase cells viability, protease fluorescence, 24 h; activity change, negative = cytotoxicity: at the top concentration
# Text: PI: Daniel Scoles Ph.D. University of Utah School of Medicine, Salt Lake City, Utah MLPCN Grant: NS073009 Spinocerebellar ataxia type 2 (SCA2) is a multisystem neurodegenerative disease caused by a dominantly acting mutation leading to expansion of a polyQ domain in the ataxin-2 protein (ATXN2). SCA2 patients develop progressive ataxia and later lose function in other neuronal systems. Prominent parkinsonian signs develop in some patients. Like many neurodegenerative disorders, no symptomatic or disease-modifying treatments are known. The primary objective of the proposed research is to identify compounds inhibiting ATXN2 expression and to test them for efficacy in SCA2 mouse models. We have developed a cell-based assay paired with an in vivo mouse model using identical luciferase expression constructs. This approach takes advantage of an ATXN2-luciferase transgene, with the luciferase gene flanked by the upstream and downstream portions of the ATXN2 gene. Here we describe a 5-7 dose quantitative high thoroughput screen (qHTS) for compounds lowering ATXN2 expression. We screened the NIH Molecular Libraries Small Molecule Repository (MLSMR) and NCGC's mechanistically annotated (MIPE) and drug repurposing (NPC) collections of compounds for lowering expression of an ATXN2-luciferase reporter in HEK-293 cells. The assay is a multiplexed cell viability assay to ensure target reduction in the absence of cytotoxicity. Secondary qHTS assays included a CMV-luciferase reporter expressed in HEK-293 cells as well as a biochemical assay using recombinant luciferase to detect inhibitors of the reporter enzyme. Compounds that inhibit ATXN2 expression but is not cytotoxic were selected for confirmatory and secondary screens.
# PROTOCOL TABLE (as described by Inglese J, Shamu CE and Guy RK. 2007) SEQUENCE No. (e.g., 1, 2, 3, etc.); […] (e.g., Cells, Incubation, Reagent, etc.); VALUE; DESCRIPTION. 1; Cells; 4 uL; white, solid bottom, 1536-well Greiner assay plate. 2; Incubation; 2 hr; 37 degree C in 5% humidified CO2. 3; Compounds; 23 nL; Kalypsis pintool (Wako USA) equipped with a 1536-well pin head. 4; Incubation; 24 hr; 37 degree C in 5% humidfified CO2. 5; Reagent; 1 uL; Gly-Phe-7-Amino-4-trifluoromethylcoumarin. 6; Incubation; 30 min; 37 degree C in 5% humidfified CO2. 7; Detection; Fluorescence; Viewlux plate reader (PerkinElmer). 8; Reagent; 3 uL; SteadyGlo luciferase solution (Promega). 9; Incubation; 5 min; room temperature. 10; Detection; Luminescence; ViewLux plate reader (PerkinElmer). NOTES (numbers refer to Sequence numbers above) 1. HEK-293 cells expressing CMV-luciferase reporter (designated as SC cells) were suspended in phenol-red free DMEM and dispensed in assay plates using a Multidrop Combi dispenser (Thermo Fisher Scientific). 2. Assay plates were incubated. Evaporation was prevented by covering assay plates with metal lids containing holes to allow gas diffusion. 3. Compounds were added in a dose response manner with the final concentrations of 57, 11.4, 2.28, 0.46, 0.091, 0.018, 0.0037 uM. Vehicle-only plates, with DMSO being pin-transferred to columns 5-48, were inserted uniformly at the beginning and the end of each library to monitor and record any shifts in assay performance. 5. 125 uM Gly-Phe-7-Amino-4-trifluoromethylcoumarin (MP Biomedicals) working concentration was used at a final concentration of 25 uM. 7. To assess cell viability; the assay plates were read using the ViewLux high-throughput CCD imager (PerkinElmer), wherein single end-point fluorescence measurement was acquired (excitation 405/10; emission 540/25 nm). 8. Detection reagent SteadyGlo Luciferase (Promega) was added to the assay plate. 10. Luminescence is then measured on the ViewLux imager equipped with a clear emission filter using a 2 sec exposure. […]
# % is scaled to controls: 0 for no effect and ±100 for the full control effect; potency is read from the fitted curve at half-maximal effect; tags tell the direction and shape of the fitted curve.
Compound,Potency,"activity change, negative = cytotoxicity"
CN(c1ccccc1)S(=O)(=O)c1ccc(C(=O)Nc2nnc(-c3ccc(F)cc3)o2)cc1,active: 14.1 µM,
COc1ccc(Cl)cc1S(=O)(=O)N1CCN(C(=O)c2n[nH]c(=O)c3ccccc23)CC1,,inactive: -12.8%
Cc1cc2oc3cc(NCCC4CCCN4C)ccc3c(=O)c2cc1C (stereo not given),"inconclusive: 39.8 µM [rising, single point]",
O=C(CNc1cccc(C(F)(F)F)c1)Nc1cccc(S(=O)(=O)N2CCCC2)c1,"inconclusive: 25.1 µM [cytotoxic, single point]",
COc1ccc(C2CC(c3ccccc3C(F)(F)F)=NN2c2ccc(S(N)(=O)=O)cc2)cc1 (stereo not given),"inconclusive: 31.6 µM [rising, partial curve]",
Oc1c(Cl)cc(Cl)cc1/C=C/c1ccc2cccc(O)c2n1,"inconclusive: 3.55 µM [rising, partial curve]",
CC(=O)Oc1ccccc1Cn1c(C)c(C(=O)NCc2ccc(Cl)c(Cl)c2)sc1=O,"inconclusive: 25.1 µM [cytotoxic, single point]",
O=C(COc1ccc(Br)cc1CO)Nc1ccc(S(=O)(=O)N2CCCCC2)cc1,"inconclusive: 28.2 µM [cytotoxic, single point]",
COc1ccc(C2CC(c3cccc(C(F)(F)F)c3)=NN2c2ccc(S(N)(=O)=O)cc2)cc1 (stereo not given),"inconclusive: 3.16 µM [rising, partial curve]",
CCn1c2ccccc2c2cc(NC(=O)COC(=O)Cc3cn4ccsc4n3)ccc21,,inactive: 1.78%
CCNc1ccc(Br)cc(C(=O)/C=C/c2ccccc2Cl)c1=O,,inactive: -19.1%
Cc1nonc1C(=O)N/N=C/c1ccc(O)cc1O,"inconclusive: 1.58 µM [cytotoxic, partial curve]",
CN1CCC(N(C)S(=O)(=O)c2ccc(NC(=O)COc3ccc(Br)cc3Cl)cc2)CC1,"inconclusive: 12.6 µM [cytotoxic, partial curve, poor fit]",
CC1(C(=O)NCc2ccco2)CCN1C(=O)C1(c2ccccc2)CC1 (stereo not given),,inactive: -2.99%
CCn1c(/C=C/c2ccc([N+](=O)[O-])o2)nc2ccccc2c1=O,"inconclusive: 4.47 µM [cytotoxic, partial curve, poor fit]",
COc1ccc(/C=C2\CN(Cc3ccccc3)C/C(=C\c3ccc(OC)c(O)c3)C2=O)cc1O,active: 10 µM,
O=C(CCCN1CCc2[nH]c3ccc(F)cc3c2C1)c1ccc(F)cc1,,inactive: -27.3% [at 57.5 µM]
CCOC(=O)Nc1ccc(N2CCOCC2)c(S(=O)(=O)Nc2ccc(Cl)cc2)c1,"inconclusive: 3.16 µM [cytotoxic, partial curve]",
CC(C)N(C(=O)N1CCN(c2ccnc3cc(Cl)ccc23)CC1)C(C)C,"inconclusive: 35.5 µM [cytotoxic, single point]",
N#Cc1c(NCCN)nc(-c2ccco2)c2c1CCCC2,,inactive: -25.6% [at 57.5 µM]
CCC(=O)c1ccc(OCC(O)CN(CCc2ccccc2)Cc2ccccc2)cc1 (stereo not given),"inconclusive: 1.26 µM [rising, partial curve, poor fit]",
Clc1ccc2c(NCc3ccccc3)ccnc2c1,"inconclusive: 20 µM [cytotoxic, partial curve, poor fit]",
O=c1c(Cc2ccccc2)c(O)nc2n1CCS2,,inactive: -7.62% [at 57.5 µM]
CCc1ccc(CNC(=O)c2cc3c(C)nc4ccccc4c3o2)cc1,,inactive: 16.5% [at 57.5 µM]

Compound,Potency,"activity change, negative = cytotoxicity"
Cc1cccc(N=C2NN=C(c3c(C)[nH]c4ccccc34)CS2)c1,active: 25.1 µM,
O=C(Nc1cccc2cccnc12)c1csc(COCCO)n1,,inactive: 7.27% [at 57.5 µM]
CC(C)n1ncc2c(C(=O)N3CCN(Cc4ccc(Br)s4)CC3)cc(C3CC3)nc21,"inconclusive: 8.91 µM [cytotoxic, single point]",
CC(=O)Nc1cccc(-c2ccnc3c2CC(C)(C(=O)Nc2ccc(F)c(Cl)c2)O3)c1 (stereo not given),"inconclusive: 28.2 µM [cytotoxic, single point]",
CCCC(=O)NC(c1ccc(OC)c(OC)c1)c1cc(Cl)c2cccnc2c1O (stereo not given),"inconclusive: 6.31 µM [cytotoxic, single point]",
CC1CCCCN1S(=O)(=O)c1ccc(C(=O)Nc2nnc(-c3ccncc3)o2)cc1 (stereo not given),"inconclusive: 20 µM [cytotoxic, single point]",
NS(=O)(=O)c1ccc(CCNc2ccn3nc(-c4cccc(C(F)(F)F)c4)cc3n2)cc1,"inconclusive: 25.1 µM [cytotoxic, single point]",
COc1cccc2c1C(=N)c1c(O)c3c(c(O)c1C2=O)CC(O)(C(C)=O)CC3OC1CC(N)C(O)C(C)O1 (stereo not given),active: 1.26 µM,
COc1ccc(N(C)S(=O)(=O)c2ccc(Cl)c(C(=O)NCCc3ccc(Cl)cc3)c2)cc1,"inconclusive: 12.6 µM [cytotoxic, partial curve, poor fit]",
NS(=O)(=O)c1ccc(NC(=O)COC(=O)c2c3c(nc4ccccc24)/C(=C\c2ccc4c(c2)OCO4)CCC3)cc1,"inconclusive: 31.6 µM [rising, partial curve]",
Cc1ccc(S(=O)(=O)Nc2cccc3cccnc23)cc1,,inactive: 21.9% [at 57.5 µM]
Cc1cc[n+](C(C)C(=O)c2ccc(-c3ccccc3)cc2)cc1 (stereo not given),"inconclusive: 14.1 µM [cytotoxic, partial curve, poor fit]",
COc1ccccc1N1C(=O)N(C(C)=O)C2C1Nc1ccccc1N2C (stereo not given),"inconclusive: 11.2 µM [cytotoxic, partial curve]",
CCC(=O)NNC(=S)NC(=O)c1ccc(C)cc1,"inconclusive: 14.1 µM [cytotoxic, partial curve, poor fit]",
C(=N\NC(=Nc1ccccc1)c1ccccn1)/c1ccccn1,,inactive: -16.1% [at 57.5 µM]
CCc1c2c(nc3ccc(OC(=O)N4CCC(N5CCCCC5)CC4)cc13)-c1cc3c(c(=O)n1C2)COC(=O)[C@]3(O)CC,"inconclusive: 39.8 µM [rising, single point]",
Cc1nc(SC2CC(=O)N(c3ccccc3)C2=O)n[nH]1 (stereo not given),,inactive: -17.3% [at 57.5 µM]
Cc1ccc(NS(=O)(=O)c2ccc(C(=O)NNC(=O)c3ccccc3O)cc2)cc1,"inconclusive: 12.6 µM [cytotoxic, partial curve]",
CC(C)(C)NCC(=Cc1ccccc1)C(=O)c1ccccc1,active: 2.24 µM,
COc1ccc(/C=C/C(=O)c2ccc3c4c(cccc24)CC3)cc1OC,"inconclusive: 11.2 µM [cytotoxic, partial curve, poor fit]",
COc1cccc(/C=N/NC(=O)c2ccc(-c3ccccc3)cc2)c1O,,inactive: -14.8% [at 57.5 µM]
CC1CCCCN1S(=O)(=O)c1ccc(C(=O)Nc2nnc(-c3ccccc3Cl)o2)cc1 (stereo not given),,inactive: -13.6%
OC(c1ccc(Cl)cc1)c1ncc(-c2cccc(C(F)(F)F)c2)[nH]1 (stereo not given),,inactive: 6.35%
O=[N+]([O-])c1ccc(O)c(/C=N\N=C2c3ccccc3-c3ccccc32)c1,active: 10 µM,

Compound,Potency,"activity change, negative = cytotoxicity"
CCc1ccc(C(O)c2ncc(-c3cccc(C(F)(F)F)c3)[nH]2)cc1 (stereo not given),,inactive: -1.52% [at 57.5 µM]
O=C(N/N=C(\c1ccccc1)c1ccccn1)c1ccccc1Cl,active: 7.94 µM,
COc1ccc(NC(=O)N2CCN(c3nc(-c4cccc(OC)c4)cs3)CC2)cc1,,inactive: -19.1%
COc1cc(C#Cc2c(-c3cncn3C)n(C)c3ccc(-c4ccc(OC)nc4)cc23)cc(OC)c1,"inconclusive: 28.2 µM [cytotoxic, single point]",
CCn1c2ccccc2c2cc(NC(=O)COC(=O)C3CCC(=O)N3)ccc21 (stereo not given),,inactive: -17.1% [at 57.5 µM]
Cc1cc(C)cc(NC(=O)CSc2nc3nc(C)cc(C)c3c(=O)[nH]2)c1,"inconclusive: 28.2 µM [cytotoxic, single point]",
COc1ccc(Nc2oc(COc3ccccc3OC)nc2C#N)cc1,,inactive: -11.6%
CCCOc1ccc(C(=O)C(CN2CCOCC2)c2ccccc2)cc1 (stereo not given),active: 25.1 µM,
COc1cc(/C=C/C(=O)Nc2ccc(OC)c(S(=O)(=O)N3CCOCC3)c2)ccc1OCC#N,"inconclusive: 0.562 µM [cytotoxic, full curve]",
O=C(N/N=C/c1ccccc1O)c1ccncc1,"inconclusive: 6.31 µM [cytotoxic, full curve, poor fit]",
O=c1c2c(nc3c(-c4ccc(Cl)cc4)c[nH]n13)CCCC2,"inconclusive: 1.58 µM [cytotoxic, full curve]",
CCCCC/C=C/C1=CC(=O)C[C@H](c2ccc(OC)c(OC)c2)C1,,inactive: -15.6% [at 57.5 µM]
Cc1ccc(Sc2nnc(Cc3ccccc3)c3ccccc23)cc1,,inactive: -19.3% [at 57.5 µM]
COc1ccccc1NC(=O)Nc1nc(CC(=O)N2CCN(c3ccccc3)CC2)cs1,"inconclusive: 20 µM [cytotoxic, partial curve, poor fit]",
CCCC(NCC(O)COc1ccc(-c2ccccc2)cc1)c1ccccc1 (stereo not given),"inconclusive: 35.5 µM [cytotoxic, single point]",
NC(=O)C1CCN(C2=C(Cl)C(=O)c3ccccc3C2=O)CC1,,inactive: 24.5% [at 57.5 µM]
CCOC(=O)c1c2ccc(OCC(=O)N/N=C/c3ccc(C)cc3)cc2n2ccccc12,"inconclusive: 25.1 µM [rising, partial curve]",
Oc1cccc(C(O)CNCc2ccc(-c3ccccc3)cc2)c1 (stereo not given),"inconclusive: 11.2 µM [cytotoxic, partial curve, poor fit]",
Cc1cccc2[nH]c3c(N4CC=C(c5ccc(F)cc5)CC4)ncnc3c12,"inconclusive: 22.4 µM [cytotoxic, single point]",
Cc1ccc(NC(=O)/C=C/c2ccc([N+](=O)[O-])s2)c(C)c1,,inactive: 10.5%
CCN(CC)c1c(C)nc2ccc(C(=O)Nc3cc(-c4ccccc4)ccc3OC)cn12,"inconclusive: 39.8 µM [cytotoxic, single point]",
COc1ccc(Cl)cc1C(Nc1cccnc1)c1ccc2cccnc2c1O (stereo not given),"inconclusive: 5.62 µM [cytotoxic, single point]",
